Reference: the RNAGym collection of RNA variant scans (doi:10.7554/elife.90254)
The source gives no read counts; variants with many changes may rest on few reads.

B1: OR4K15 (parent)
chain: GUUAACGGUCAUAGGCCAUGGAAACUAGGAGCACCAUUUCGCUGCCAGUGAAGAAAUGAACAAAGAAAAUCUGGGCCAGGCAGGCAUCAAAAGAAAUAGUCUUGCGCUCAACCAGAAAGUCUGUAAUCAUUUUAAGGGUA

Variants of: B1
Assay: self-cleavage, relative activity (ratio to wild type); higher = more cleavage; in vitro, sequencing; the parent is a self-cleaving ribozyme

Variant | self-cleavage
GUUAACGGUCAUAGGCCAUGGAAACUAGGAGCACCAUUUCGCUGCCAGUGAAGAAAAGGACAAAGAAAAUCUGGGCCAGGCAGGCAUCAAAAGAAAUAGUCUUGCGCUCAACCAGAAAGUCUGUAAUCAUUCUAAGGGUA | 0.54
GUUAACGGUCAUAGGCCAUGGGAACUAGGAGCACCAUUUCGCUGCCAGUGAAGAAAUGAGCAAAGAAAAUCUGGGCCUGACAGGCAUCAAAAGAAAUAGUCUUGCGCUCAACCAGAGAGUCUGUAAUCAUUUUAAGGGUA | 0.12
GUUAACGGUCAUAGGCCAUGGAAACUAGGAGCACCUUUCCGCUGCAAGUGAAGAAAUGAACAAAGAAAAUCUGGGCCAGGCAGGCAUCAAAAGAAAUAGUCUUGCGCUCAACCAGAAAGUCUGUAAUCAUUUUAAGGGUA | 1.48
GUUAACGGUCAUAGGCCAUGGGAACUAGGAGCACCAUUUCGCUGCUAGUGAAGCAAUGAACAAAGAAAAUCUGGGCCAGGCCGGCAUCAAAAGAAGUAGUCUUGCGCUCAACCAGAAGGUCUGUAAUCAUUUUAAGGGUA | 0.11
GUUAACGGUCAUAGGCCAUGGAAACUAGGAGCACCAUUUCGCUGCCAGUGAAGAAAUGAACAAAGAAAAUCUGGGCCAGGCAGGCGUCAAAAGAAAAAGUCUUGCGCUCAACCAGAAAGUCUGUGAUCAUUUUAAGGGUA | 0.55
GUUAGCGGUCAUAGGCCAUGGAAACUAGGAGCACCAUUUCGCUGCCAGUGAAGAAAUGAACAAAGAAAAUCUGGGCCAGGCAGGCAUCAAAAGGAAUAGUCUUGCGCUCAACCAGAAAGUCUGUAAUCAUUCUGAGGGUA | 1.12
GUUAACGGUCAUAGGCCAAGGAAACUAGGAGCACCAUUUCGCUGCCAGUGAAGAAGUGAACAAAGAAGGUCUGGGCCAGGCAGGCAUCAAAAGAAAUAGUCUUGCGCUCGACCAGUAAGUCUGUAAUCAUUUUAAGGGUA | 0.01
GUUAGCGGUCAUAGGCCAUGGGAACUAGGAGCACCAUUUCGCUGCCAGUGAAGAAAUGAACAAAGAAAAUCUGGGCCAGGCAGGCAUCAAAAGAAAUAGUCUUGCGCUCAACCAGAAAGUCCGUAAUCAUUUUAAGGGUA | 1.18
GUUAACGGUCAUAGGCCAUGGAAACCAGGAGCACCAUUUCGCUGCCAGUGAAGAAAUGAGCAAAGAAAAUCUGGGCCAGGCAGGCAUCAAAAGGAAUAGUCUUGCGCUCAACCAGAAAGUCUGUAAUCAUUUUAAGGGUA | 1.53
GUUAACGGUCAUAGGCCAUGGAAACUAGGAGCGCCAUUUCGCUGCCAGUGAAGAAAUGAACAAAGAAGAUCUAGGCCAGGCAGGCAUCAAAAGAAAUAGUCUUGCGCUCAACCAGAAAGUCUGUAAUCAUUUUAAGGGUA | 0.18
GUUAACGGUCAUAGGCCAUGGAAACUAGGAGCACCUUUUCGCUGCCAGUGAAGAAAUGAACAAAGAAAUUCUGGGCCAGGCAGGCAUCAAAAGAAAUAGUCCUGCGCUCAACCAGAAAGUCUGUAAUCAUUUUAAGGGCA | 1.24
GUUAACGGUCAUAGGCCAUGGAAACUAGGAGCACCAUUUCGCUGCCAGUGUAGAAAUGAACAAAGAAAACCUGGGCCAGGCAGGCAUCAAAAGAAAUAGUCUUGCGCCCAACCAGAAAGUCUGUAAUCAUUUUAAGGGUA | 0.01
GUUAACGGUCAUAGGCCAUGGUAACUAGGUGCACCAUUUCGCUGCCAGUGAAGAAAUGAACAAAGAGAACCUGGGCCAGGCAGGCAUCAAAAGUAAUAGUCUUGCGCUCAACCAGAAAGUCUGUAAUCAUUUUAAGGGUA | 0.49
GUUAACGGUCAUAGGCCAUGGAAAUUAGGAGCACCAUUUCGCCGCCAGUGAAGAAAUGAACAGAGAAAAUCUGGGCCAGGCUGGCUUCAAAAGAAAUAGUCUUGCGCUCAACCGGAAAGUCUGUAAUCAUUUUAAGGGUA | 0
GUUAACGGUCAUAGGCCAUGGAAACUAGGGGCACCAUUUCGCUGCCAGUGAAGAAAUGAACAAAGAAGAUCUGGGCCAGGCAGGCAUCAAAAGAAGUAGUCUUGCGCUCAACCAGAAAGUCUGUAAUCAUUUUAAGGGUA | 1.38
GUUAACGGUCAUAGGCCAUGGAAGCUAGGAGCACCAUUUCGCUGCCAGUGAAGAAAUGAACAAAGAAAAUCUGGGCCAGGCAGGCAUCAAGAGAAAUAGUCUUGCGCUCAACCAGGAAGUCUGUAAUCAUUUUAAGGGUA | 1.03
GUUAACGGUCAUAGGCCAUGGAUCCUAGGAGCACCAUUUCGCUGCCAGCGAAGAAAUGAACAAAGAAAAUCUGGGCCAGGCAGGCAUCAAAAGAAAUAGUCUUGCGCCCAACCAGAAAGUCUGUAAUCAUUUUAAGGGUA | 0
GUUAACGGUCGCAGGCCAUGGAAACUAGGAGCACCAUUUCGCUGCCAGUGAAGAAAUGAACAAAGAAAAUCUGGGCCAGGCAGGCAUCAAAAGAAAUAGUCUUGCGCUCAACCAGGAAGUCUGUAAUCAUUUUAAGGGUA | 0.85
GUUAUCGGUCAUAGGCCAUGGAAACUAGGAGCACCAUUUCGCUGCCAGUGAAGAAAUGAGCAAAGAAGAUCUGGGCCAGGCAGGCAUCAAAAGAGAUAGUCUUGCGCUCAACCAGAAAGUCUGUAGUCAUUUUAAGGGUA | 1.02
GUUAACGGUCAUAGGCCAUGGAAACUAGGAGCACCAUUUCGCUGCCAGUGAAGAAAUGGACAAAGAAAAUCUGGGCCAGGCAGUCAUCAGAAGAAAUAGUCUUGCGCUCAACCAGAAAGUCUGUAAUCAUUUUAAGGGUA | 0.53
GUUAACGGUUAUAGGCCAUGGAAACUAGGAGCACCAUUUCGCUGCCAGUGAAGAAAUGAACAAAGAAAAUCCGGGCCAGGCAGGCAUCAAAAGAAAUAGUCUUGCGCUCAACCAGAGAGUCUGUAAUCAUUUUAAGGGUA | 0.09
